{"source": "the supplement of paper PMC12217912", "parents": {"B1": {"name": "TEV protease; numbered along this chain (parent)", "chain": "MGESLFKGPRDYNPISSSICHLTNESDGHTTSLYGIGFGPFIITNKHLFRRNNGTLVVQSLHGVFKVKDTTTLQQHLVDGRDMIIIRMPKDFPPFPQKLKFREPQREERICLVTTNFQTKSMSSMVSDTSCTFPSGDGIFWKHWIQTKDGQCGSPLVSTRDGFIVGIHSASNFTNTNNYFTSVPKNFMELLTNQEAQQWVSGWRLNADSVLWGGHKVFMVKPEEPFQPVKEATQL"}}, "note": "This is one part of the list. Sequences were assembled here from the parent chain. Inactive controls read about 0.05.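 Further: Bxb1 expression induced with 0.2% (w/v) L-rhamnose at OD600 near 0.5, cultures sampled hourly, flipped fraction per protease–substrate barcode pair counted by paired-end Illumina sequencing.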", "data": [{"variants_of": "B1", "test": "raw area under fraction-flipped curve 0-4 h after induction (AUC4h, not background-subtracted), DNA-recorder readout of cleavage of the substrate (dimensionless); higher = more cleavage of the substrate by the protease variant", "details": "temperature: 34 °C; time window: 0-4 h after rhamnose induction", "method": "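In vivo DNA recorder in E. coli TOP10(DE3) ΔrhaA at 34 °C. Each TEVp single-site mutant (parent TEVp 0) is paired with a single-site variant of the 7-mer TEVs (canonical ENLYFQ|S). The substrate sits between flexible linkers in a Bxb1-sfGFP-TEVs-SsrA fusion, so cleavage stabilises Bxb1 and speeds flipping of a recombination array, read by NGS. The value is the raw area under the fraction-flipped curve over 0-4 h after rhamnose induction (AUC4h), with ≥20 reads per time point. It is not background-subtracted; inactive controls average about 0.047.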", "values": [{"variant": "MGESLFKGPADYNPISSSICHLTNESDGHTTSLYGIGFGPFIITNKHLFRRNNGTLVVQSLHGVFKVKDTTTLQQHLVDGRDMIIIRMPKDFPPFPQKLKFREPQREERICLVTTNFQTKSMSSMVSDTSCTFPSGDGIFWKHWIQTKDGQCGSPLVSTRDGFIVGIHSASNFTNTNNYFTSVPKNFMELLTNQEAQQWVSGWRLNADSVLWGGHKVFMVKPEEPFQPVKEATQL", "note": "[R10A]", "area with substrate DNLYFQS": 0.0766, "area with substrate LNLYFQS": 0.0683, "area with substrate MNLYFQS": 0.0563, "area with substrate NNLYFQS": 0.0598, "area with substrate RNLYFQS": 0.0732, "area with substrate SNLYFQS": 0.0649, "area with substrate TNLYFQS": 0.106, "area with substrate VNLYFQS": 0.0765, "area with substrate WNLYFQS": 0.056, "area with substrate YNLYFQS": 0.0652}, {"variant": "MGESLFKGPRDTNPISSSICHLTNESDGHTTSLYGIGFGPFIITNKHLFRRNNGTLVVQSLHGVFKVKDTTTLQQHLVDGRDMIIIRMPKDFPPFPQKLKFREPQREERICLVTTNFQTKSMSSMVSDTSCTFPSGDGIFWKHWIQTKDGQCGSPLVSTRDGFIVGIHSASNFTNTNNYFTSVPKNFMELLTNQEAQQWVSGWRLNADSVLWGGHKVFMVKPEEPFQPVKEATQL", "note": "[Y12T]", "area with substrate DNLYFQS": 0.0637, "area with substrate FNLYFQS": 0.0634, "area with substrate GNLYFQS": 0.0951, "area with substrate MNLYFQS": 0.0655, "area with substrate NNLYFQS": 0.0679, "area with substrate PNLYFQS": 0.0703, "area with substrate RNLYFQS": 0.0178, "area with substrate TNLYFQS": 0.0648, "area with substrate VNLYFQS": 0.0754, "area with substrate WNLYFQS": 0.0595, "area with substrate YNLYFQS": 0.0704}, {"variant": "MGESLFKGPRDYNFISSSICHLTNESDGHTTSLYGIGFGPFIITNKHLFRRNNGTLVVQSLHGVFKVKDTTTLQQHLVDGRDMIIIRMPKDFPPFPQKLKFREPQREERICLVTTNFQTKSMSSMVSDTSCTFPSGDGIFWKHWIQTKDGQCGSPLVSTRDGFIVGIHSASNFTNTNNYFTSVPKNFMELLTNQEAQQWVSGWRLNADSVLWGGHKVFMVKPEEPFQPVKEATQL", "note": "[P14F]", "area with substrate DNLYFQS": 0.0469, "area with substrate HNLYFQS": 0.074, "area with substrate INLYFQS": 0.0522, "area with substrate KNLYFQS": 0.0461, "area with substrate LNLYFQS": 0.0599, "area with substrate MNLYFQS": 0.0698, "area with substrate NNLYFQS": 0.0652, "area with substrate PNLYFQS": 0.0678, "area with substrate QNLYFQS": 0.067, "area with substrate SNLYFQS": 0.0682, "area with substrate TNLYFQS": 0.0596, "area with substrate WNLYFQS": 0.0524, "area with substrate YNLYFQS": 0.0682}, {"variant": "MGESLFKGPRDYNPRSSSICHLTNESDGHTTSLYGIGFGPFIITNKHLFRRNNGTLVVQSLHGVFKVKDTTTLQQHLVDGRDMIIIRMPKDFPPFPQKLKFREPQREERICLVTTNFQTKSMSSMVSDTSCTFPSGDGIFWKHWIQTKDGQCGSPLVSTRDGFIVGIHSASNFTNTNNYFTSVPKNFMELLTNQEAQQWVSGWRLNADSVLWGGHKVFMVKPEEPFQPVKEATQL", "note": "[I15R]", "area with substrate DNLYFQS": 0.0606, "area with substrate HNLYFQS": 0.0433, "area with substrate LNLYFQS": 0.0519, "area with substrate TNLYFQS": 0.0615}, {"variant": "MGESLFKGPRDYNPISSSDCHLTNESDGHTTSLYGIGFGPFIITNKHLFRRNNGTLVVQSLHGVFKVKDTTTLQQHLVDGRDMIIIRMPKDFPPFPQKLKFREPQREERICLVTTNFQTKSMSSMVSDTSCTFPSGDGIFWKHWIQTKDGQCGSPLVSTRDGFIVGIHSASNFTNTNNYFTSVPKNFMELLTNQEAQQWVSGWRLNADSVLWGGHKVFMVKPEEPFQPVKEATQL", "note": "[I19D]", "area with substrate DNLYFQS": 0.0438, "area with substrate FNLYFQS": 0.0345, "area with substrate GNLYFQS": 0.0517, "area with substrate HNLYFQS": 0.0464, "area with substrate INLYFQS": 0.0347, "area with substrate KNLYFQS": 0.048, "area with substrate LNLYFQS": 0.0255, "area with substrate MNLYFQS": 0.0456, "area with substrate NNLYFQS": 0.0474, "area with substrate PNLYFQS": 0.0463, "area with substrate RNLYFQS": 0.0437, "area with substrate SNLYFQS": 0.0673, "area with substrate TNLYFQS": 0.0388, "area with substrate VNLYFQS": 0.0444, "area with substrate WNLYFQS": 0.0503}, {"variant": "MGESLFKGPRDYNPISSSICHLFNESDGHTTSLYGIGFGPFIITNKHLFRRNNGTLVVQSLHGVFKVKDTTTLQQHLVDGRDMIIIRMPKDFPPFPQKLKFREPQREERICLVTTNFQTKSMSSMVSDTSCTFPSGDGIFWKHWIQTKDGQCGSPLVSTRDGFIVGIHSASNFTNTNNYFTSVPKNFMELLTNQEAQQWVSGWRLNADSVLWGGHKVFMVKPEEPFQPVKEATQL", "note": "[T23F]", "area with substrate DNLYFQS": 0.0645, "area with substrate HNLYFQS": 0.053, "area with substrate INLYFQS": 0.0725, "area with substrate KNLYFQS": 0.0698, "area with substrate LNLYFQS": 0.0633, "area with substrate PNLYFQS": 0.0419, "area with substrate QNLYFQS": 0.0488, "area with substrate TNLYFQS": 0.0757, "area with substrate VNLYFQS": 0.0548, "area with substrate WNLYFQS": 0.0718, "area with substrate YNLYFQS": 0.0534}, {"variant": "MGESLFKGPRDYNPISSSICHLTIESDGHTTSLYGIGFGPFIITNKHLFRRNNGTLVVQSLHGVFKVKDTTTLQQHLVDGRDMIIIRMPKDFPPFPQKLKFREPQREERICLVTTNFQTKSMSSMVSDTSCTFPSGDGIFWKHWIQTKDGQCGSPLVSTRDGFIVGIHSASNFTNTNNYFTSVPKNFMELLTNQEAQQWVSGWRLNADSVLWGGHKVFMVKPEEPFQPVKEATQL", "note": "[N24I]", "area with substrate DNLYFQS": 0.0854, "area with substrate GNLYFQS": 0.0694, "area with substrate HNLYFQS": 0.0646, "area with substrate INLYFQS": 0.06, "area with substrate LNLYFQS": 0.0686, "area with substrate MNLYFQS": 0.0541, "area with substrate NNLYFQS": 0.0661, "area with substrate PNLYFQS": 0.0641, "area with substrate SNLYFQS": 0.0716, "area with substrate TNLYFQS": 0.062, "area with substrate WNLYFQS": 0.0591, "area with substrate YNLYFQS": 0.0607}, {"variant": "MGESLFKGPRDYNPISSSICHLTNEIDGHTTSLYGIGFGPFIITNKHLFRRNNGTLVVQSLHGVFKVKDTTTLQQHLVDGRDMIIIRMPKDFPPFPQKLKFREPQREERICLVTTNFQTKSMSSMVSDTSCTFPSGDGIFWKHWIQTKDGQCGSPLVSTRDGFIVGIHSASNFTNTNNYFTSVPKNFMELLTNQEAQQWVSGWRLNADSVLWGGHKVFMVKPEEPFQPVKEATQL", "note": "[S26I]", "area with substrate DNLYFQS": 0.0657, "area with substrate FNLYFQS": 0.0526, "area with substrate GNLYFQS": 0.0757, "area with substrate HNLYFQS": 0.0629, "area with substrate INLYFQS": 0.047, "area with substrate LNLYFQS": 0.065, "area with substrate MNLYFQS": 0.0841, "area with substrate PNLYFQS": 0.0578, "area with substrate RNLYFQS": 0.0529, "area with substrate VNLYFQS": 0.06, "area with substrate WNLYFQS": 0.0501, "area with substrate YNLYFQS": 0.0599}]}]}
